According to the RNAGym collection of RNA variant scans (doi:10.1073/pnas.2313332121):
This sample is rich in variants without activity.

B1: TPR 5TU (parent)
chain: GGAUCUUCUCGAUCUAACAAAAAAGACAAAUCUGCCACAAAGCUUGAGAGCAUCUUCGGAUGCAGAGGCGGCAGCCUUCGGUGGCGCGAUAGCGCCAACGUUCUCAACUAUGACACGCAAAACGCGUGCUCCGUUGAAUGGAGUUUAUCAUG

Variants of: B1
Experiment: polymerase ribozyme fitness, log enrichment relative to wild type (log ratio); higher = more active; in vitro selection for triplet polymerase activity
In short: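 PCR was used to build mutant libraries for each subunit of a heterodimeric triplet polymerase ribozyme, which were then transcribed. A single in vitro selection round, in triplicate, used a frozen incubation at −7 °C and recovered extended constructs by gel excision, streptavidin beads and RT-PCR. Fitness is the logarithm of genotype enrichment relative to wild-type enrichment, averaged over replicates with inverse-variance weights. The logarithm is base 2, and after Illumina sequencing only genotypes with ≥10 input reads and ≥1 read per output were kept.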

Polymerase ribozyme fitness (log ratio), -2.83:
GGAUCUUCUCGAUCUAGCAAAAAAGACAAAUCUGCCUCAAAGCUUGAGAGUAUCUUCGGAUGCAGAGGCGGCAGCCUUCGGUGGCGCGAUAGCGCCAACGUUCUCAACUAUGACACGCAAAACGCGUGCUCCGUUGAAUGGAGUUUAUCAUG [A17G A37U C51U]

Polymerase ribozyme fitness (log ratio), -1.5:
GGAUCUUCUCGAUCUAGCAAAAAAGACAAAUCUGCCACACAGCUUGACAGCAUCUUCGGAUGCAGAGGCGGCAGCCUUCGGUGGCGCGAUAGCGCCAACGUUCUCAACUAUGACACGCAAAACGCGUGCUCCGUUGAAUGGAGUUUAUCAUG [A17G A40C G48C]

Polymerase ribozyme fitness (log ratio), -0.98:
GGAUCUUCUCGAUCUAGCAAAAAAGACAAAUCUGCCACAAAGCUUGAGAGCCUCUUCGGAUGCAGAGGCGGCAGCCUUCGGUGGCGCGAUAGCGCCAACGUUCUCAACUAUGACACGCAAAACGCGUGCUCCGUUGAAUGGAGUUUAUCAUG [A17G A52C]

Polymerase ribozyme fitness (log ratio), ≤ -4.2:
GGAUCUUCUCGAUCUAGCAAAAAAGACAAAUCUGCCUCAAAGCUUGAGAGCAUCUACGGAUGCAGGGGCGGCAACCUUCGGUGGCGCGAAAGCGCCAUCGUUCUCAACUAUGACACGCAAAACGCGUGCUCCGUUGAAUGGAGAUUAUGAUG [A17G A37U U56A A66G G74A U90A A98U U144A C149G]
GGAUCUUCUCGAUCUAGCAAAAAAGACAAAUCUGCCACACAGCUUGUGAGCAUCGUCGGAUGCAGAGGCGGCAGCCUUCGGUAGCGCGAUAGCGCCAACGUUCUCAACUAUGACACGCAAAACGCGUGCUGCGUUGAAUGGAGUUUAUCAUG [A17G A40C A47U U55G G83A C131G]
GGAUCUUCUCGAUCUAGCAAAAAAGACAAAUCUGCCACAACGCUUGAGAGAAUCUUCGGAUGCAGAGGCGGCAGCCUUCGCUGGCGCGAUAACGCGAACGUUCUCAACUAUGACACGCAAAACGCGUGCUCCGUUGAAUGGAGCUUAUGAUG [A17G A41C C51A G81C G92A C96G U144C C149G]
GGAUCUUCUCGAUCUAGCAAAAAAGACAAAUCUGCCACAAAGCUUGAGCGCAUCUUCGGAAGCAGAGGCGGCAGCCUUCGGCGGCGCGAUAGCGCCAACGUUCUCAUCUAUGACACGCAAAACGCGUGCUCCGUUGAAUGGAGUCUAUCAUG [A17G A49C U61A U82C A107U U145C]
GGAUCUUCUCGAUCUAGCAAAAAAGACAAAUCUGCCACAAAGCUUGAGAGCGUCUUCGGAUGCAGAGGCGGCAGCCUUCGGUGACGCGAUAGCUCCAACGUUCUCAACUAUGACACGCAAAACGCGUGCUCCGUUGAAUGGAAUUUAUCAUG [A17G A52G G84A G94U G143A]
GGAUCUUCUCGAUCUAGCAAAAAAGACAAAUCUGCCACAAAGCUUGAGAGCAUCUUCGGCUGCAGAGGCGGCAGCAUUCGGUGGCGCGAUAGUGCUAACGUUCUCAACUAUGACACGCAAAAGGCGUGCUCCGUUUAAUGGAGUUUAUCAUG [A17G A60C C76A C93U C96U C123G G136U]
GGAUCUUCUCGAUCUAGCAAAAAAGACAAAUCUGCCACAAAGCUUGAGAGCAUCUUCGGGUGCAGAGGCGGCAGCCUUCGGUGGCGAGAUAGCGCCAACGUUCUCAACAAUGACACGCAAAACGCGUGCUCGGUUGAAUGGAGUUUAUCAUG [A17G A60G C87A U109A C132G]
GGAUCUUCUCGAUCUAGCAAAAAAGACAAAUCUGCCACAAAGCUUGAGAGCAUCUUCGGAUGCGGAGGCGGCAGCCUUCGGUGGCGCGAUAGGGCCAACGUUCUCAACUAUGACACGCAAAACGCGUGCUCCGUUGAAUGGAGUUUAUCAUG [A17G A64G C93G]
GGAUCUUCUCGAUCUAGCAAAAAAGACAAAUCUGCCACAAAGCUUGAGAGCAUCUUCGGAUGCAGAGGCGGCAGCCUUCGGUGGCGCGAUUGCGCCAACGUUCUCAACUAUGACACGCAAAACGCGUGCUCCGUUGAAUGGAGUUUAUCAUG [A17G A91U]
GGAUCUUCUCGAUCUAGCAAAAAAGACAAAUCUGCCACAAAGCUUGAGAGCAUCUUCGGAUGCAGAGGCGGCAGCCUUCGGUGGCGCGAUUGCGCCAACGUUCUCAACUAUGAAACGCAAAACGCGUGCUCCGUUGAAUGGACUUUAUCAUG [A17G A91U C114A G143C]
GGAUCUUCUCGAUCUAGAAAACAAGACAAAUCUGCCACAAAGCUUGAGAGCAUCUUCGGAUGCAGAGGCGGCAGGCUUCGGUGGCGCUAUAGCGCCAACGUUCUCAACUAUGACACGCAAAACGCGUGCUCCGUUGAAUGGAGUUUAUCAUG [A17G C18A A22C C75G G88U]
GGAUCUUCUCGAUCUAGGUAAAAAGACAAAUCUGCCACAAACCUUGAGAGCAUCUUCGGAUGCAGAGGCGGCAGCCUUCGGUGGCGGGAUAGCGCCAACGUUCUCAACUGUGACACGCAAAACGCGUGCUCCGUUGAAUGGAGUUUAUCAUG [A17G C18G A19U G42C C87G A110G]
GGAUCUUCUCGAUCUAGGAAAAAAGACAAAUCUGCCACAAAGCUUGAGAGCAUCUUCGGAUGCAGAGCCGGCAGCCUUCGGUGGCGCGAUUUCGCCAACGUUCUCAACUAUGACACGCAAAACUCGUGCUCCGUUGAAUGGAGUUUAUCAUG [A17G C18G G68C A91U G92U G124U]
GGAUCUUCUCGAUCUAGUACAAAAGACAAAUCUGCCUCAAAGCUUGAGAGCAUCGUCGGAUGCAGAGGCAGCAGCCUUCGGUGGCGCGAUAGCGCCAACGUUCUCAACUAUGACACGCAAAACGCGUGCUCCGUUGAAUGGAGAUUAUCAUG [A17G C18U A20C A37U U55G G70A U144A]
GGAUCUUCUCGAUCUAGUAAAAAAGACAAAUCUGCCACAAAGCUUGAGCGCAUCUUCGGAUGCAGAGGCGGCAGCCUUCGGUGGCGCGAUAGCGCCAUAGUUCUUAACUAUGACACGCAUAACGCGUGCUCCGUUGAAUGGAGUUUAUCAUG [A17G C18U A49C A98U C99A C105U A120U]

Polymerase ribozyme fitness (log ratio), -3.19:
GGAUCUUCUCGAUCUAGUAAAAAAGACAAAUCUGCCACACAGCUUGAGAGCAUCUUCGGAUGCAGAGGCGGCAGCCUUCGGUGGCGCGAUAGCGCCAAGGUUCUCAACUAUGACACGCAAAACGCGUGCUCCGUUGAAUGGAGUUUAUCAUG [A17G C18U A40C C99G]
